# Measured values from the supplement of paper PMC10369915.
# The list shows a part of the results. Cut-off read from the data, not from the text of the source: active = 3.2 or more and inactive = the rest. Most of these values are background signal.
# B1: TP53_Y234_C238G_YF (peptide)
# chain: CTTIHYNFMGN
# B2: TP53_Y234_H233P_YF (peptide)
# chain: CTTIPYNFMCN
# B3: TP53_Y220_V217A (peptide)
# chain: SVAVPYEPPEV
# B4: TP53_Y234_M237V (peptide)
# chain: CTTIHYNYVCN
# B5: TP53_Y234_N235M_YF (peptide)
# chain: CTTIHYMFMCN
# B6: TP53_Y220_V217L (peptide)
# chain: SVLVPYEPPEV
# B7: TP53_Y234_N235S_YF (peptide)
# chain: CTTIHYSFMCN
# B8: TP53_Y234_I232N_YF (peptide)
# chain: CTTNHYNFMCN
# B9: TP53_Y234_M237I_YF (peptide)
# chain: CTTIHYNFICN
# B10: TP53_Y234_M237R_YF (peptide)
# chain: CTTIHYNFRCN
# B11: TP53_Y234_H233Y (peptide)
# chain: CTTIYYNYMCN
# B12: TP53_Y220_V217G (peptide)
# chain: SVGVPYEPPEV
# B13: TP53_Y234_C238R (peptide)
# chain: CTTIHYNYMRN
# B14: TP53_Y220_Y220N (peptide)
# chain: SVVVPNEPPEV
# B15: TP53_Y234_C229G_YF (peptide)
# chain: GTTIHYNFMCN
# B16: TP53_Y234_M237L (peptide)
# chain: CTTIHYNYLCN
# B17: TP53_Y220_Y220D (peptide)
# chain: SVVVPDEPPEV
# B18: TP53_Y234_N235H (peptide)
# chain: CTTIHYHYMCN
# B19: TP53_Y234_N235I_YF (peptide)
# chain: CTTIHYIFMCN
# B20: TP53_Y234_C229Y (peptide)
# chain: YTTIHYNYMCN
# B21: TP53_Y234_N235S (peptide)
# chain: CTTIHYSYMCN
# B22: TP53_Y234_I232N (peptide)
# chain: CTTNHYNYMCN
# B23: TP53_Y234_H233D_YF (peptide)
# chain: CTTIDYNFMCN
# B24: TP53_Y234_N235H_YF (peptide)
# chain: CTTIHYHFMCN
# B25: TP53_Y234_N235D_YF (peptide)
# chain: CTTIHYDFMCN
# B26: TP53_Y220_V218E (peptide)
# chain: SVVEPYEPPEV
# B27: TP53_Y234_M237V_YF (peptide)
# chain: CTTIHYNFVCN
# B28: TP53_Y234_I232T_YF (peptide)
# chain: CTTTHYNFMCN
# B29: TP53_Y234_C229G (peptide)
# chain: GTTIHYNYMCN
# B30: TP53_Y234_I232T (peptide)
# chain: CTTTHYNYMCN
# B31: TP53_Y234_H233D (peptide)
# chain: CTTIDYNYMCN
# B32: TP53_Y234_I232S (peptide)
# chain: CTTSHYNYMCN
# B33: TP53_Y234_I232L_YF (peptide)
# chain: CTTLHYNFMCN
# B34: TP53_Y220_V218M (peptide)
# chain: SVVMPYEPPEV
# B35: TP53_Y234_H233R (peptide)
# chain: CTTIRYNYMCN
# B36: TP53_Y234_C238Y (peptide)
# chain: CTTIHYNYMYN
# B37: TP53_Y234_H233P (peptide)
# chain: CTTIPYNYMCN
# B38: TP53_Y220_V225F (peptide)
# chain: SVVVPYEPPEF
# Columns and labels:
# Assay in all cases: enrichment score (SH2-bound / input frequency) (ratio); bacterial display of known human phosphotyrosine sites (pTyr-Var adds point mutants) read by sequencing; higher = stronger binding; tyrosines were phosphorylated by kinases first
# Conditions in all cases: peptide library: pTyr-Var
# SHP2 C-SH2 domain E139D = target: SHP2 C-SH2 domain E139D
# [1] = target: SHP2 C-SH2 domain wild-type
# SHP2 N-SH2 domain L43F = target: SHP2 N-SH2 domain L43F
# SHP2 N-SH2 domain T42A = target: SHP2 N-SH2 domain T42A
# SHP2 N-SH2 domain T52S = target: SHP2 N-SH2 domain T52S
# [2] = target: SHP2 N-SH2 domain wild-type
# 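Note: displayed peptides selected on beads carrying the immobilized SH2 domain, with library peptides lacking any tyrosine serving as negative controls.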
Binder,enrichment score (SHP2 C-SH2 domain E139D),enrichment score [1],enrichment score (SHP2 N-SH2 domain L43F),enrichment score (SHP2 N-SH2 domain T42A),enrichment score (SHP2 N-SH2 domain T52S),enrichment score [2]
B1,inactive: 1.88,inactive: 1.37,inactive: 1.34,inactive: 1.13,inactive: 1.37,inactive: 1.67
B2,inactive: 2.29,inactive: 1.97,inactive: 2.25,inactive: 2.12,inactive: 2.13,inactive: 1.66
B3,inactive: 0.652,inactive: 0.745,inactive: 0.935,inactive: 0.735,inactive: 0.769,inactive: 0.992
B4,active: 5.52,active: 6.52,inactive: 3.11,inactive: 2.69,inactive: 3.15,inactive: 2.87
B5,active: 3.71,active: 4.17,active: 3.83,active: 3.39,active: 3.41,active: 3.71
B6,inactive: 0.861,inactive: 0.83,inactive: 0.992,inactive: 0.699,inactive: 0.97,inactive: 0.931
B7,active: 3.8,active: 3.76,active: 3.55,inactive: 2.71,active: 3.24,inactive: 2.93
B8,inactive: 2.29,inactive: 2.42,inactive: 2.16,inactive: 1.58,inactive: 2.23,inactive: 1.52
B9,active: 4.12,active: 3.46,active: 3.66,inactive: 2.68,active: 3.37,inactive: 3.03
B10,active: 3.4,inactive: 2.64,active: 3.22,inactive: 2.69,inactive: 3.02,inactive: 2.9
B11,active: 4.98,active: 4.11,active: 4.48,inactive: 3.17,active: 3.87,active: 4.31
B12,inactive: 0.835,inactive: 0.734,inactive: 0.736,inactive: 0.666,inactive: 0.677,inactive: 0.717
B13,inactive: 2.11,inactive: 2.1,inactive: 1.88,inactive: 1.53,inactive: 1.92,inactive: 1.68
B14,inactive: 0.74,inactive: 0.715,inactive: 0.769,inactive: 0.7,inactive: 0.793,inactive: 0.852
B15,inactive: 1.16,inactive: 1.12,inactive: 0.982,inactive: 0.82,inactive: 0.995,inactive: 1.25
B16,active: 5.08,active: 5.7,active: 3.43,active: 3.46,inactive: 3.13,active: 3.28
B17,inactive: 0.693,inactive: 0.663,inactive: 0.503,inactive: 0.583,inactive: 0.614,inactive: 0.563
B18,active: 3.22,inactive: 3.07,inactive: 3.07,inactive: 2.39,inactive: 2.62,inactive: 2.55
B19,inactive: 2.47,inactive: 2.39,inactive: 2.19,inactive: 2.11,inactive: 2.22,inactive: 2.35

Binder,enrichment score (SHP2 C-SH2 domain E139D),enrichment score [1],enrichment score (SHP2 N-SH2 domain L43F),enrichment score (SHP2 N-SH2 domain T42A),enrichment score (SHP2 N-SH2 domain T52S),enrichment score [2]
B20,inactive: 1.11,inactive: 1.74,inactive: 1.35,inactive: 2.03,inactive: 1.35,inactive: 1.38
B21,active: 3.43,active: 4.01,inactive: 3.13,inactive: 2.54,inactive: 3,inactive: 2.87
B22,inactive: 2.88,active: 4.43,inactive: 1.79,inactive: 1.65,inactive: 1.78,inactive: 1.44
B23,inactive: 2.84,inactive: 2.35,inactive: 2.34,inactive: 2.05,inactive: 2.25,inactive: 2.17
B24,active: 3.69,active: 3.35,active: 3.45,inactive: 2.65,inactive: 3.1,inactive: 3.15
B25,inactive: 3.19,active: 3.57,active: 3.5,inactive: 2.69,active: 3.31,inactive: 3.09
B26,inactive: 0.586,inactive: 0.713,inactive: 0.563,inactive: 0.487,inactive: 0.59,inactive: 0.671
B27,active: 5.02,active: 3.91,active: 4.03,inactive: 2.93,active: 3.8,active: 3.69
B28,inactive: 2.99,inactive: 2.94,inactive: 2.57,inactive: 2.22,inactive: 2.9,inactive: 2.45
B29,inactive: 0.986,inactive: 1.17,inactive: 0.77,inactive: 0.951,inactive: 0.668,inactive: 1.24
B30,inactive: 2.74,active: 4.54,inactive: 1.59,inactive: 1.27,inactive: 1.54,inactive: 1.41
B31,inactive: 1.78,inactive: 1.79,inactive: 1.93,inactive: 1.6,inactive: 1.79,inactive: 1.5
B32,inactive: 2.8,active: 4.44,inactive: 1.64,inactive: 1.47,inactive: 1.58,inactive: 1.41
B33,active: 3.52,active: 3.38,active: 3.56,inactive: 2.69,active: 3.25,inactive: 2.66
B34,inactive: 0.856,inactive: 0.768,inactive: 0.946,inactive: 0.782,inactive: 0.716,inactive: 0.869
B35,active: 4.8,active: 3.82,active: 4,active: 3.29,active: 3.85,active: 3.56
B36,inactive: 1.81,inactive: 2.13,inactive: 1.92,inactive: 1.74,inactive: 1.43,inactive: 1.97
B37,inactive: 2.65,inactive: 2.41,inactive: 2.57,inactive: 2.08,inactive: 2.39,inactive: 2.07
B38,inactive: 0.885,inactive: 0.892,inactive: 0.934,inactive: 0.847,inactive: 0.905,inactive: 0.839
